# Hit rate of the full screen: of about 410,000 compounds, about 6,400 (1.6%) were called active. This list was built around the results that the source calls inconclusive (neither active nor inactive); the mix of calls is not that of the screen. The call rests on the fitted dose curve; in most records, active means well fitted inhibition curve with a large enough effect; inconclusive means small, poorly fitted or top-dose-only effect; inactive means no such curve, though single readings can be large or run the other way. Potencies of inconclusive entries are left out as doubtful fits.
# Molecular target: Glucagon-like peptide 1 receptor (Homo sapiens) (UniProt P43220)
# Chain of UniProt P43220 (P43220 whole entry, looked up): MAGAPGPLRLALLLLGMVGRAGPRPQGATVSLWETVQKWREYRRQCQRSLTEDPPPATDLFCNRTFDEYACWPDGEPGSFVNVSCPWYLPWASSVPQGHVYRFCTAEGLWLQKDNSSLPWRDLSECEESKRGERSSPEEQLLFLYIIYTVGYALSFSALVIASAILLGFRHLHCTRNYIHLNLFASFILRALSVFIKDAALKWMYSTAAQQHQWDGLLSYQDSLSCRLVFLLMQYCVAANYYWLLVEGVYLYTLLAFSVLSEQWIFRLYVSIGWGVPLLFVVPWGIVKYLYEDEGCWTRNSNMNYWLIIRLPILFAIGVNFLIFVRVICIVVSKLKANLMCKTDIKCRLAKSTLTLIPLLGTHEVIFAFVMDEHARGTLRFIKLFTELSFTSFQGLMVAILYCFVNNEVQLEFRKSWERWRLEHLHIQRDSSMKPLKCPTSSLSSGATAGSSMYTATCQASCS
# Experiment: qHTS of GLP-1 Receptor Inverse Agonists (Inhibition Mode); further: nearly all actives have a fitted effect of over 55% in size
# Conditions: HEK293 GLP-1R CRE-luciferase, luminescence, 24 h, GLP-1R form is constitutively active; activity change, negative = inhibition: at 38.3 µM (top of the series) unless noted
# Summary of the method: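 HEK293 cells stably co-expressing a cAMP-responsive luciferase reporter and constitutively active GLP-1R were seeded, incubated 12 h, then exposed to compounds for 24 h at 37 C. Luminescence was read 12 min after detection reagent; inverse agonists lower signal.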
# On the % scale 0 is the no-effect control and ±100 the full control effect; potency means the concentration at half of the fitted maximal effect; tags describe the fitted curve by direction and shape.
SMILES,Potency,"activity change, negative = inhibition"
COc1ccc(C2c3[nH]c4ccccc4c3CCN2C(=O)CCC2CCCC2)cc1 (stereo not given),"inconclusive [inhibitor, partial curve, poor fit]",
CC(C)(C)NC(=O)Nc1cccc(Cl)c1Cl,"inconclusive [inhibitor, single point]",
Cc1ccc(Nc2ncnc(-n3cccc3)n2)cc1Cl,,inactive: -10.8%
O=C(NCCCN1CCCC1=O)c1cn(-c2ccccc2)nc1-c1ccccc1,"inconclusive [inhibitor, single point]",
CCOC(=O)CCCCNCc1ccccc1,,inactive: 1.99%
CCOc1ccccc1NC(=S)NC(=O)CCc1ccccc1,"inconclusive [inhibitor, partial curve, poor fit]",
CCc1ccc(-c2cc(C)no2)cc1S(=O)(=O)NCCCN1CCN(c2ccccc2)CC1,"inconclusive [inhibitor, partial curve, poor fit]",
CCc1cc2ccc(OC)cc2nc1SCC(=O)N1CCN(C(=O)c2ccco2)CC1,"inconclusive [inhibitor, partial curve, poor fit]",
Brc1cccc(OCCCCN2CCCCC2)c1,"inconclusive [inhibitor, partial curve, poor fit]",
Cc1ccc(CNC(=O)CCc2cn(C)c3ccccc23)cc1,"inconclusive [inhibitor, single point]",
C#CCOCCOCCOCCNc1nc(N2CCN(C(=O)CCCCCCCCCCNC(=O)Cn3cc(C[C@@H](C)O)nn3)CC2)nc(N2CCN(C(=O)CCCCCCCCCCNC(=O)[C@@H]([C@H](C)CC)n3cc(CCCCCN)nn3)CC2)n1,"inconclusive [inhibitor, single point]",
CC(=O)c1cccc(-c2ccc(CN3C(CC(C)C)C(=O)N(Cc4cn(CC5CCCCC5)nn4)CCS3(=O)=O)cc2)c1 (stereo not given),"inconclusive [inhibitor, partial curve, poor fit]",
Cc1ccc(C(C)C)c(OCc2ccc(C(=O)N/N=C/c3cccc(O)c3O)cc2)c1,"inconclusive [inhibitor, partial curve, poor fit]",
Cn1c(CNc2ccc(Cl)cc2)nnc1SCCN1CCCCC1,active: 3.98 µM,
COCCCN1C(=O)C(CC(=O)NC2CCCCC2)CC(C(=O)N(C)C)=C1C (stereo not given),,inactive: 8.58%
CCC(CC)C(=O)Nc1nnc(S(=O)(=O)N2CCCCCC2)s1,active: 7.94 µM,
O=S(=O)(c1ccc(Cl)cc1)N1CCCC1c1nc(-c2cccc(Cl)c2)no1 (stereo not given),"inconclusive [inhibitor, single point]",
Cc1cccc(CN2C(=O)c3ccccc3Sc3ccc(C(=O)NCc4ccco4)cc32)c1,"inconclusive [inhibitor, single point]",
Cc1cccc(-c2cc(C(=O)Nc3sc(C)c(C)c3C(N)=O)c3ccccc3n2)c1,"inconclusive [inhibitor, partial curve, poor fit]",
O=C(NC1CCCCC1)c1ccc2c(c1)OCCO2,"inconclusive [inhibitor, single point]",

SMILES,Potency,"activity change, negative = inhibition"
O=c1c2ccccc2nc(/C=C/c2cccc3ccccc23)n1-c1ccc(F)cc1F,"inconclusive [inhibitor, single point]",
Cc1ccc(C(O)(CNCc2ccccc2)c2ccccc2)cc1 (stereo not given),"inconclusive [inhibitor, single point]",
CCCCCN(C(=O)CCC(=O)OC(C)C(=O)NC1CCCCC1)c1c(N)n(CCCC)c(=O)[nH]c1=O (stereo not given),,inactive: 7.37%
O=C1NCC(c2ccccc2)C1C(=O)N/N=C\c1ccc(-c2cccc(Cl)c2Cl)o1 (stereo not given),"inconclusive [inhibitor, single point]",
O=C(c1ccc(-n2cncn2)c([N+](=O)[O-])c1)N1CCN(S(=O)(=O)c2ccccc2F)CC1,,inactive: 0.118%
CC(C)CCNC(=O)c1cccc(C(=O)NCCC(C)C)c1,"inconclusive [inhibitor, partial curve, poor fit]",
Cc1ccc(-c2nc(CS(=O)(=O)CC(=O)NCCCN3CCOCC3)c(C)o2)cc1,"inconclusive [inhibitor, single point]",
COc1ccc2c(CNCCc3ccc(SC)cc3)c(C(=O)O)n(Cc3ccc(F)cc3)c2c1,,inactive: 1.5%
COc1ccc(-c2nc(SC(C)C(=O)NCC3CCCO3)n[nH]2)cc1 (stereo not given),"inconclusive [inhibitor, partial curve]",
Cc1nc(-c2ccc(S(=O)(=O)Nc3cc(Cl)ccc3C)cc2)co1,"inconclusive [inhibitor, single point]",
COc1ccc(Cn2cc(S(=O)(=O)c3ccc(C)cc3)c(=O)c3cc(F)ccc32)cc1,,inactive: 11%
CC(C)=CC(=O)Nc1ccc(OCc2ccccc2)cc1,"inconclusive [inhibitor, partial curve, poor fit]",
O=C(Nc1cccnc1)c1cc2c(s1)-c1ccccc1OC2,"inconclusive [inhibitor, full curve]",
CCOC(=O)N1CCN(C(=O)CS(=O)Cc2nc(-c3cccc(C)c3)oc2C)CC1 (stereo not given),,inactive: 11.4%
COc1ccc(CCc2ccc3ccccc3n2)cc1,active: 10 µM,
C=CCN(C(=O)c1csnn1)C(C(=O)NC1CCCC1)c1ccccc1 (stereo not given),"inconclusive [inhibitor, partial curve, poor fit]",
Cc1cccc(N2C(=O)C(Oc3ccc(Cl)cc3Cl)C2C=O)c1C (stereo not given),"inconclusive [inhibitor, full curve, poor fit]",
O=C(NCC(=O)N1CC=C(c2ccccc2)CC1)c1ccc(OC(F)F)cc1,"inconclusive [inhibitor, full curve]",
CCCn1ncc(CN2CCC(C(=O)Nc3cccc(-c4cccc(F)c4)c3)CC2)c1C,"inconclusive [inhibitor, full curve, poor fit]",
COc1cccc(NCc2cccn2-c2nnc(N3CCC(C)CC3)s2)c1,"inconclusive [inhibitor, single point]",
